This is one part of the list.
What follows are sequences tested on T1, Caupolican (Caup) homeodomain DNA-binding domain (assay: PBM E-score (8-mer, recovered from the published 9-mer minima) (E-score (dimensionless, -0.5 to 0.5)); Drosophila protein; higher = stronger relative binding preference, active = 0.31 or more).
T1 sequence: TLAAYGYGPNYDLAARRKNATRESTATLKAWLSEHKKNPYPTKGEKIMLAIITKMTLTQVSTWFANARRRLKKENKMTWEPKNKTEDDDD
In short: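 Caup's homeodomain DNA-binding domain (residues 214-303) was produced by in vitro transcription and translation and applied at 100 nM to custom-designed protein binding microarrays. Each value is an enrichment score giving relative binding preference for a short DNA word; higher means stronger. Published 9-mer scores were the minimum of their two constituent 8-mer scores, and the 8-mer values were recovered from those minima. A cutoff of 0.31 marks candidate binding sequences.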

Sequence	PBM E-score
AGGAAAGC	inactive: -0.118
CGGATGCA	inactive: -0.111
GAATTTGC	inactive: 0.0319
GGTGAGAC	inactive: -0.065
AGTCTTCC	inactive: -0.082
CCCCGTCA	inactive: -0.234
ATTCCAGC	inactive: -0.0544
ACCCCTAG	inactive: -0.125
ACGTATAA	inactive: 0.0902
ATGTTCCC	inactive: 0.282
AACTGCAA	inactive: -0.0126
CTCTGACA	inactive: 0.181
AATACCGT	inactive: 0.05
GCCGTGCC	inactive: -0.209
TCAGTACA	active: 0.313
CATAAAGA	inactive: 0.11
CTACGAAA	inactive: -0.0135
AGCACCAC	inactive: -0.0959
CCCGGACC	inactive: -0.198
CCGCGGAA	inactive: -0.189
CACCGTGC	inactive: -0.00842
GAATCGGA	inactive: -0.0551
CCCGACCG	inactive: -0.259
CTAGTCCA	inactive: 0.0476
CGGTCTCC	inactive: -0.28

Sequence	PBM E-score
ACGATACG	inactive: 0.0862
CGAAGGGA	inactive: -0.0996
GGCAACGA	inactive: 0.04
CAGACACC	inactive: 0.0639
CAACCCCA	inactive: -0.102
CAAAGTGA	inactive: -0.0286
AGTTTGAT	inactive: 0.0981
ACACGCAA	inactive: 0.283
GCAACCCA	inactive: -0.00131
GCCCCGGA	inactive: -0.272
GCTGCAGA	inactive: -0.0221
GACACTTA	inactive: 0.0943
ATGTCAAA	active: 0.359
AAACACTT	inactive: 0.153
AACGCGAG	inactive: -0.0453
TAGGATCA	inactive: 0.0338
AACTGCAG	inactive: -0.0155
GTTATTAA	inactive: 0.164
AGTGATCA	inactive: 0.157
AGACGTAT	inactive: 0.0977
CCAAACCA	inactive: -0.047
GGCGCACC	inactive: -0.318
AGAACTCA	inactive: 0.0135
ACCCGTAC	inactive: 0.0668
ATAAAGGC	inactive: -0.111

Sequence	PBM E-score
AATTAGAA	inactive: -0.00471
ACATGTCA	active: 0.461
AGGCGGGC	inactive: -0.272
ACTGACCC	inactive: -0.14
AGTAGTGG	inactive: -0.00423
CGGGTCTA	≥ -0.0577
CAAATACC	inactive: 0.0217
CCGCTGCC	inactive: -0.169
ACGACGCC	inactive: -0.108
ACTACGTG	inactive: 0.0316
AAACCTTA	inactive: 0.0279
AAACTATA	inactive: 0.123
CATCAAAG	inactive: 0.0355
GGCTGCGA	inactive: -0.238
AGCTAAAG	≥ 0.0657
CAGTCCGC	inactive: -0.134
CACCGTGG	inactive: -0.0464
ATGGACGG	inactive: -0.0288
ACTGGGAT	inactive: 0.0195
CGGCAGGC	inactive: -0.213
AGGCAAGG	inactive: -0.146
ACATATAC	inactive: 0.291
CGATGGAG	inactive: -0.139
CGTAATTA	inactive: 0.157
CAGATCAC	inactive: 0.102

Sequence	PBM E-score
CGTACGAC	inactive: 0.14
GGAGTCGA	inactive: -0.094
GTGATTCA	inactive: 0.0823
GGTAGTTA	inactive: 0.08
ACGCTGGG	inactive: -0.281
CGGCGGGC	inactive: -0.257
GGAATATA	inactive: 0.0513
CTACAGAG	inactive: 0.084
AGTAACAA	inactive: 0.266
CGCCTACA	inactive: 0.0793
CGCCTAGC	inactive: -0.251
GCACGCAA	inactive: -0.112
ATATTTAC	inactive: 0.232
GAGTCATA	inactive: 0.0277
GGAACGGA	inactive: -0.154
AAAAGTGA	inactive: 0.0661
ATGGTGGC	inactive: -0.103
CCGAGCTA	inactive: -0.131
CACGAGGA	inactive: -0.0584
CATGCAAG	inactive: 0.0746
TATGTAGA	inactive: 0.226
AGATGAGC	inactive: -0.0506
TAGAGACA	inactive: 0.0795
GGCATTAC	inactive: 0.041
AGCAAATG	inactive: 0.0599

Sequence	PBM E-score
ATCCTGTA	≥ 0.249
GAGATCTC	inactive: -0.102
GGCTTTAA	inactive: -0.0745
CAATCGGG	inactive: -0.0717
CTGCGTCC	inactive: -0.206
CGAATCTC	inactive: 0.0162
AGCCAAAC	inactive: -0.0421
ATACTAAA	inactive: 0.132
ATCGTGAG	inactive: -0.093
CGCGTCAA	inactive: -0.0559
GCCATTAA	inactive: -0.0131
CCGAATCA	inactive: -0.0338
GCATGCAC	inactive: 0.0682
ACAGTCCC	inactive: -0.111
TAGGGGAA	≥ -0.0662
AGAAGGAT	≥ 0.0415
CCTTGAAG	inactive: -0.0924
ACCCCATA	inactive: -0.073
GACACGAA	inactive: 0.224
GGGTCGTA	inactive: -0.0762
CATGGGTC	inactive: 0.00071
AGCTCTAG	inactive: -0.0297
GAATCAAC	inactive: 0.0847
TACGTGCA	inactive: 0.0134
CACATCAA	inactive: 0.0655

Sequence	PBM E-score
GACTCCCA	inactive: -0.0661
GCGTTATA	inactive: -0.0159
CTTTTCCA	inactive: -0.0614
ACTCCGCT	≥ -0.0542
AGTACTCG	inactive: 0.132
CGCCAGGC	inactive: -0.273
ATCCCCCC	inactive: -0.367
CGTATATC	inactive: 0.00102
ACCGCAAC	inactive: 0.0145
CGTGCCTA	inactive: -0.188
CTCAGGCC	inactive: -0.222
TCAATCAA	inactive: 0.127
AGGTTAGA	inactive: -0.0257
AGTTCACA	inactive: 0.0193
ACTATCAT	inactive: 0.122
ATGGAGTG	inactive: 0.0154
AAGTGAAG	inactive: -0.0115
AAACGGCT	inactive: -0.15
TCCTAACA	≥ 0.219
AGTCGATC	inactive: -0.0276
AGCAGGCA	inactive: -0.125
TACCACAA	≥ 0.177
CTTCAGCC	inactive: -0.141
ACGTAGCG	inactive: -0.0384
ACGACAAA	inactive: 0.194

Sequence	PBM E-score
AAAACACC	inactive: 0.125
CACTGAAG	inactive: -0.0338
CGGGCCTC	inactive: -0.244
CGAGTTAA	inactive: 0.0671
AAGAGTCT	inactive: -0.0694
CAAGGTCG	inactive: 0.0326
GCTGTCTA	inactive: -0.0187
CGATTCAG	inactive: -0.0377
CCATTAGC	inactive: -0.00206
AATTGGTA	inactive: 0.129
AAAGAATA	≥ 0.148
GTCCTCTA	inactive: -0.0553
AGACTTCA	inactive: 0.0153
AATAAGAA	inactive: 0.00861
TCCCGACA	inactive: 0.16
CTTCGTGC	inactive: -0.0316
AGGGCGTC	inactive: -0.192
CAACGGAC	inactive: -0.0225
ATGGGCCC	inactive: -0.267
CGCTTGCA	inactive: 0.00443
CGCCGCAG	inactive: -0.303
CTCCCCTA	inactive: -0.147
ATTTTACA	inactive: 0.305
ACGCCAGC	inactive: -0.231
TAGCCTCA	inactive: -0.0217

Sequence	PBM E-score
GGCGACTA	inactive: -0.0102
CTCAATCC	inactive: -0.0271
CATCCTGG	inactive: -0.0229
TCTAGTAA	inactive: 0.152
ATTACCGG	inactive: 0.0125
CGGCTCGA	inactive: -0.0839
ATGGATGG	inactive: -0.00742
ATTACTAC	inactive: 0.293
TCGCGCCA	inactive: -0.219
TCATTAGA	inactive: 0.0193
AGACCTGG	inactive: -0.161
AGTTTCGA	inactive: -0.0587
CCATTGGC	inactive: -0.124
ATTAGCAG	inactive: 0.0319
CGTAGGAA	inactive: 0.0374
ACAGCCGT	≥ 0.00479
AAGTTATA	inactive: 0.163
GGCGTATA	inactive: -0.0296
ACCGAACC	inactive: -0.0895
ATGCTAGA	inactive: 0.0809
GATTAACA	inactive: 0.292
ACAAAGCG	inactive: -0.00979
GCTAGCGA	inactive: -0.16
ACGGAGAC	inactive: -0.0291
AACTTTCC	inactive: -0.108

Sequence	PBM E-score
TACCTACA	inactive: 0.278
ACCCGAGT	inactive: -0.0433
ATAAGAAA	inactive: 0.133
ACTAACCG	inactive: 0.0241
TAGTCGGA	inactive: -0.014
CTTACGTA	inactive: 0.0887
AACGAAAA	inactive: 0.0909
AACGAGAA	≥ 0.15
ATCGTAGA	inactive: 0.0792
TTATCGAA	inactive: 0.0475
CTAACTCC	inactive: -0.159
CTAACCGC	inactive: -0.0969
CCGGAGAG	inactive: -0.159
GATGATCC	inactive: -0.0978
CTATAGAA	inactive: 0.0358
AGGTGGTG	inactive: 0.0492
ACGGACCG	inactive: -0.0951
GAACTTGA	inactive: -0.0607
AAAAGAAG	inactive: -0.0156
GGTATTTA	inactive: 0.0587
ATGCTTTC	inactive: 0.0403
AGCACATA	inactive: 0.0614
ATGATGTA	active: ≥ 0.383
GTTGTCGA	inactive: 0.229
